The values that follow come from the supplement of paper PMC12632987.

Over roughly 4,500 sequences, “median log2 fold change of GCK-ALFA target abundance (FLAG IP / Myc IP barcode read proportion)” has its median near 0.078; the lowest 2% begin near -0.6. Some of the results follow.

B1: GBRAP_11_2745 (protein)
chain: KKEKLKKIAELAEKLAKTLQELIDKGVDNEKLLKEAEKLLEELTKLVKEHGDKSLQKLAEIAKENFEKAKADPANALQYLQEALAAARVLEGQVLLEIEE
B2: GBRAP_39_5646 (protein)
chain: EEKEEQELEFSYLLAIGEKYMVDNGLTDEQVPAETRRAAARVIAEHPEIAPLVEELLALAEAGDIEHQIAALGAFLLAEEGLPVEELREHLEKLIAYFKT
B3: GBRAP_52_6170 (protein)
chain: SEEEARRVAEELLEAVRAGDEERVRELLERIAREFSDEEIAATLAEVARRVPELSPEDKERVVEAALELEDIAVEAGHDEEVLDIEVARVAAAAYDALQA
B4: GBRAP_128_3584 (protein)
chain: SVAAARAYTRATLAAIKAADAATRRALARDLAERFASLSPEEQEAAADTILELLPELSPEDLRALADALRAADTSDSPLQTNLAAEVEVEALNKEEEEEE
B5: GBRAP_78_6721 (protein)
chain: ELEKLLDEAIEKLNEAAKLALELPEEKSNELLDLLVEAINLLMEIIENNLKKEEAIKLLEKAAKLLEEALKLLGGENPELKKKVEEAKKLVEEALKLLKK
B6: GBRAP_11_2697 (protein)
chain: KKEELKKAKELAEKLAKVLEQLIKEGVDNKELLAEAKKLLEEIKKLVEKYGDEGLKTLAKIIEELFKKALEDKENAVEYLKEAQAAARVLAGQFLLLIEE
B7: GBRAP_14_3862 (protein)
chain: MEKLVKAVDEAAKDLKELVKVVAPEHAEEINKKVDELAKKIKEKIKKENLNIEEVEELVEKAAEELAAYLKEKGYLSDTEIAALKAHLLSEILLKLEEIE
B8: GBRAP_184_5329 (protein)
chain: KTLEVHIENLPIEEIKKKVEEALKEAAAQGAALSIYIDASGYSIEEIKELIEYIGELAKKYGVKDVTLGIDKAVNEEEADILIEIADKYGIRLVLPLEDE
B9: GBRAP_11_2823 (protein)
chain: KKEALKEIAEKAKELADKLKALIASGKPTQEQLDELKKMAEELLKLEKKYGDKDQIKLAEILLEEINEAIANPETQLQHLQNALAAAQVLEGQALLDLEE
B10: GBRAP_137_3667 (protein)
chain: MIDAEIEIENGQAFATLTYKGDKATAERLAEVIEDVAGEIPGIAVSVEINDDGTLVADLFGTLEEVREALKRIARRMNLDVKVTTRDEETGEVTEETIKA
B11: GBRAP_128_3236 (protein)
chain: MSEEVRKKVEELIEKIINGSLEETREATRELVELMGELDDETAEEIAEMLIKAIPKLTKEKLDVVADVLRENRGKLDPLKAALAAEVEIEALEQAEELEE
B12: GBRAP_35_5593 (protein)
chain: SIKELLLDSTLDHIEALIAGIPELDPETVAALAKSVVKLAEAAIEELKGDKESLKKLLEGVEKLIKELEKHYKDNPLIQEAVKELKKVAEAIKKEIKKAE
B13: GBRAP_166_4970 (protein)
chain: MQEEIVKELKEFIDEKAEEMKTANHEEKLELLAEVAEKIGEAIKKGLSNENLKELIEYLIKKAKEVGISYSEVEGALTILADLDEEQVDILIEARKKVEK
B14: GBRAP_184_5075 (protein)
chain: SVREETIRVENVEEARAKMAALAERVRDHRGDLVVLVEMPEADLEIMRAVLEGLAAILAAGYARRVTVGFDAEVTEEQVDEAVALADRLGVNVVLPLKEE
B15: GBRAP_9_7107 (protein)
chain: KEEFAKKVKEIIEEAAEEIKKIVPEELKPKVDEMVEEILKEIDKLAKDKNTTVEEIAKAAKEGLKKMAEELSKLLSPEIAAGVETIVLTAIEEIDELAEE
B16: GBRAP_83_6985 (protein)
chain: KEEIVIATPADKAEEAAKIVIDLSKKYDVTLEILVTNREEDKQKVKDAVDKLAKAGVEMEVIVHGLGMTEEEAKKLKEELEAIAKKHGVDIKVTVVLEEK
B17: GBRAP_128_3565 (protein)
chain: STAELVAEARALLAAIKAADAEEARALAERLADLIAAASPEARAAIVETILARLPELTAEQLDILADVFAARRATADPAVAEALAEIQVEALNVREEKEE
B18: GBRAP_160_4580 (protein)
chain: SAKLEEALALIDEAAEFVKSLVDEVTLEEFINFLETEFGSVILELLDKGLITEEVADKLMEVVDEAVEYLKANPDLTPEERKELVDEMTAKMKAILKEAA
B19: GBRAP_117_2578 (protein)
chain: MEEREEVKRRLRETVREAGKRLEESKSLSPEERRKVEEEVRERIAEAVREALEVLSREEVLDIVEEELLEFDAETYFKIMSFVEEAIEEIREEEEREREE
B20: GBRAP_137_3679 (protein)
chain: MKVKITIEEHEDVVEITVTIEDKETGEELAEKIEDIAVEVGALAISVEKNEDGTYEVTIYVPKEKLEELLKKILELLKDADEVEIIRIVDGKETVEVIKN
B21: GBRAP_125_3007 (protein)
chain: DLEVVVELIRGLLELAGESESNIEEAERLAREQGGKNTLIAVLLAIGTEELADLARKLSPEQLVRVARRAVEYLKAHPDISLEEALEHLRRLIEEELAKA
B22: GBRAP_11_2799 (protein)
chain: KKEALEKMAKLAEELAKALEELIKEGVDNEELREKIEKLLKELKELAEKHADEGLRKLVEIAEELFKKIYEDPENAEEYAKLALATVRVLEGNILLEIEE
B23: GBRAP_139_3711 (protein)
chain: MKPEELIAEAKAIVKENKNDIEKLAKEIAELMSKADDETALLIARAAAEELKDFSWEEWEKLIELVSEELKKLGEEEDRVLAIEGEMEAVFAEQEIAKEK
B24: GBRAP_95_7048 (protein)
chain: DDDRLALESAVDVLETYLDLGEEEKARRAAREAVRLLREAGFDAVPADLSLEARRLLIREAARILSPEEVRALTDALLAVAPREEDKAALRAVAEAELAA
B25: GBRAP_128_3424 (protein)
chain: HMEEAVARARELLEKMLTADPEEAQKLADELVELFSSADLETAEAIAEVILEKLPEFTAEQLEILADALRKALPKLTPEKANVAAGVIVELLNRAEELEE
B26: GBRAP_11_2786 (protein)
chain: KKEKLKEIIKLAEEAIKLAKELKESGGNNQELIDKLKKLLEKLKELVKENMDEADKKLAEIAIEEFEKALADPANQQEHLDHAIAALEVLKGEALLRLEE
B27: GBRAP_125_2995 (protein)
chain: APEEVLAALARLLRALGFDDEDVAEAVALAARHGARGTLYAALKALGYDAAADAVARLTEAETAEVLLRVAAELEANPDLTPDEVAALILAVAEAVLAAS
B28: GBRAP_9_7162 (protein)
chain: MEELIEKMEKVVEEMFEEIKEVVPEEKQPVVDEERKEVLEKLKELKADPTVTKEEAAEKTIELVEEALEKIKKVVSPELAKQLEAIALTAILEIEEIKEE
B29: GBRAP_52_5870 (protein)
chain: MLEEAVKLLKEMVKAMKEGKKEEAKKIAKEIVEKFSDETILEAVKKLAEEVLTKSLEEAEAFFEAAELLSDIMLEAGRDENIASLIEAIAGAALYKVEQK

For the assay, the target named is GABARAP, O95166. In words: median log2 fold change of GCK-ALFA target abundance (FLAG IP / Myc IP barcode read proportion) (log2 ratio); each designed protein is fused to an ALFA-tag nanobody in HEK293 cells to bring the named protein to FLAG-tagged glucokinase (GCK); Myc marks an untargeted standard; higher = target protein stabilised (more abundant). To be noted: target protein: 3xFLAG-MCP-GCK-ALFA reporter; HEK293 landing pad (RPLP). A digest of the protocol: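 An ALFA-nanobody-fused binder library was recombined into HEK293 landing-pad cells and induced with 2 μg mL^−1 doxycycline. Cells were transfected with a plasmid expressing a FLAG-tagged target and a Myc-tagged standard. After 48 h, lysates underwent anti-FLAG and anti-Myc immunoprecipitation, and circular RNA barcodes were reverse transcribed, amplified and sequenced. Target abundance is the per-binder median log2 ratio of FLAG to Myc barcode read proportions. Barcodes needed ≥10^−7 proportion in both replicates, binders ≥3 barcodes per replicate, and a 10^−6 pseudocount was added; the two replicates were pooled.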
GABARAP, O95166, sequence (O95166 whole entry, the tested form may be a part): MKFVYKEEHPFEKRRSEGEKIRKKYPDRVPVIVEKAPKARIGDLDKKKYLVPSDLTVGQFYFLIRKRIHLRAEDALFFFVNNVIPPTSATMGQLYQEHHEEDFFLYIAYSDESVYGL
In the case of B1, the “median log2 fold change” value was 0.224.
B2: the “median log2 fold change” value was 0.294.
On to B3, for which the “median log2 fold change” value stood at 0.0058.
For B4, the “median log2 fold change” value worked out at 0.136.
Then B5, with 0.00845; and B6, with 0.341; and B7, with 0.197.
Turning to B8, the “median log2 fold change” value was -0.086.
In the case of B9, the “median log2 fold change” value is -0.158.
On to B10, for which the “median log2 fold change” value was found to be 0.0191.
Then B11, with 0.171; and B12, with -0.248.
For B13 the value was -0.135; for B14, 0.0908; for B15, 0.487.
For B16 the value was 0.078; for B17, 0.318.
Turning to B18, the “median log2 fold change” value is -0.17.
Then B19, with 0.274.
In the case of B20, the “median log2 fold change” value is -0.124.
Then B21, with 0.128.
Regarding B22, the “median log2 fold change” value was -0.208.
Consider B23, for which the “median log2 fold change” value was -0.0366.
In the case of B24, the “median log2 fold change” value worked out at 0.121.
B25: the “median log2 fold change” value was 0.158.
Then B26, with 0.178.
Then B27, with -0.0191.
For B28 the value was 0.179; for B29, 0.0828.
